# Results taken from the supplement of paper PMC8728848.
# This is one part of the list.
# B1: CvGal1 (Crassostrea virginica), A7Y0I5 (protein)
# chain: MTYQISKISQPFTSYIPNGLHIGKHLLLRGRVSYGTEAFAINLQQNPEPCNGEVAFHFNPRPGEQQCVRNSFDGGSWMDEERDQPHFPFDEGRSFTLRIEVAEEGFRTYVNGKPYVNFSHRLDLGNVHYLYLTEGAEFYDISYQDRYTLPYKSEIPQQMNVGKAVRIRGASQDNDGFSVNFACDPDNENCAFHFNPRPNEGVVVRNANLGGWGDEERDYEAEFPFHPYNYFDAMFICTDDKYLVHVNDKYFTEFNHRGGVDASSFFNIVGNLDIQDVEYFEPLEDDFVKTIPSGLVKGDVLIFRGFMKPGGDTFSINFMNGYSVEDDIAFHLNPRVGEGQVVMNCCMGGAWGDEEREDIPSPLADREPFEVKVVVKKNKFKVYVNGKKCMKFAARGNLEDIKGVNIKGEAYVYEVKLERKLEDSWEYLPGGFRVGGWVVVQAIPKKGSEGFAINFRTGSDEDSDIAFHFNPRLQENCTIRNSCAGGAWGGEERDQPDFPFEKKDTCEIAIQAQPDRFVTYVNGKRYIEFNHRLPLESITCVELTGRADFFEPKFF
# Tests used:
# Experiment in all cases: glycan array binding signal (z-score within array); higher = stronger binding
# Conditions in all cases: glycan notation: IUPAC condensed, linker removed
# [1] = target: Man(a1-2)Man(a1-3)[Man(a1-2)Man(a1-6)]Man(a1-6)[Man(a1-2)Man(a1-2)Man(a1-3)]Man(b1-4)GlcNAc(b1-4)GlcNAc
# In short: (§1)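 Arrays were curated from the Consortium for Functional Glycomics database, 3228 in total, and kept only where the protein sequence was available. Binding is expressed as a within-array Z-score. This score was averaged across arrays of the same protein sequence at different concentrations or buffers and across linkers, and negative values can be read as non-binding.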
# [2] = target: Man(a1-2)Man(a1-3)[Man(a1-6)]Man(a1-6)[Man(a1-2)Man(a1-3)]Man(b1-4)GlcNAc(b1-4)GlcNAc
# In short: as §1
# [3] = target: Man(a1-2)Man(a1-6)[Man(a1-3)]Man(a1-6)[Man(a1-2)Man(a1-2)Man(a1-3)]Man
# In short: as §1
# [4] = target: Man(a1-2)Man(a1-6)[Man(a1-3)]Man(a1-6)[Man(a1-2)Man(a1-2)Man(a1-3)]Man(b1-4)GlcNAc(b1-4)GlcNAc
# In short: as §1
# Man(a1-3)[Man(a1-6)]Man = target: Man(a1-3)[Man(a1-6)]Man
# In short: as §1
# [5] = target: Man(a1-3)[Man(a1-6)]Man(a1-6)[Man(a1-2)Man(a1-3)]Man(b1-4)GlcNAc(b1-4)GlcNAc
# In short: as §1
# [6] = target: Man(a1-3)[Man(a1-6)]Man(a1-6)[Man(a1-3)]Man
# In short: as §1
# [7] = target: Man(a1-3)[Man(a1-6)]Man(a1-6)[Man(a1-3)]Man(b1-4)GlcNAc(b1-4)GlcNAc
# In short: as §1
# [8] = target: Man(a1-3)[Man(a1-6)]Man(b1-4)GlcNAc(b1-4)GlcNAc
# In short: as §1
# [9] = target: Man(a1-3)[Man(a1-6)]Man(b1-4)GlcNAc(b1-4)[Fuc(a1-6)]GlcNAc
# In short: as §1
# Man(a1-6)Man = target: Man(a1-6)Man
# In short: as §1
# Man(b1-4)GlcNAc = target: Man(b1-4)GlcNAc
# In short: as §1
# Neu5Ac(a2-3)Gal = target: Neu5Ac(a2-3)Gal
# In short: as §1
# [10] = target: Neu5Ac(a2-3)Gal(b1-3)GalNAc
# In short: as §1
# [11] = target: Neu5Ac(a2-3)Gal(b1-3)GalNAc(b1-3)Gal(a1-4)Gal(b1-4)Glc
# In short: as §1
# [12] = target: Neu5Ac(a2-3)Gal(b1-3)GalNAc(b1-4)[Neu5Ac(a2-3)]Gal(b1-4)Glc
# In short: as §1
# [13] = target: Neu5Ac(a2-3)Gal(b1-3)GalNAc(b1-4)[Neu5Ac(a2-8)Neu5Ac(a2-3)]Gal(b1-4)Glc
# In short: as §1
# [14] = target: Neu5Ac(a2-3)Gal(b1-3)GalNAc6S
# In short: as §1
# [15] = target: Neu5Ac(a2-3)Gal(b1-3)GlcNAc
# In short: as §1
# [16] = target: Neu5Ac(a2-3)Gal(b1-3)GlcNAc(b1-2)Man(a1-3)[GlcNAc(b1-4)][Neu5Ac(a2-3)Gal(b1-3)GlcNAc(b1-2)Man(a1-6)]Man(b1-4)GlcNAc(b1-4)GlcNAc
# In short: as §1
# [17] = target: Neu5Ac(a2-3)Gal(b1-3)GlcNAc(b1-3)Gal(b1-3)GlcNAc
# In short: as §1
# [18] = target: Neu5Ac(a2-3)Gal(b1-3)GlcNAc(b1-3)Gal(b1-4)GlcNAc
# In short: as §1
# [19] = target: Neu5Ac(a2-3)Gal(b1-3)GlcNAc(b1-3)GalNAc
# In short: as §1
# [20] = target: Neu5Ac(a2-3)Gal(b1-3)GlcNAc(b1-6)GalNAc
# In short: as §1
# [21] = target: Neu5Ac(a2-3)Gal(b1-3)GlcNAc6S
# In short: as §1
# [22] = target: Neu5Ac(a2-3)Gal(b1-3)[Fuc(a1-4)]GlcNAc
# In short: as §1
# [23] = target: Neu5Ac(a2-3)Gal(b1-3)[Fuc(a1-4)]GlcNAc(b1-3)Gal(b1-3)[Fuc(a1-4)]GlcNAc
# In short: as §1
# [24] = target: Neu5Ac(a2-3)Gal(b1-3)[Fuc(a1-4)]GlcNAc(b1-3)Gal(b1-4)[Fuc(a1-3)]GlcNAc
# In short: as §1
# [25] = target: Neu5Ac(a2-3)Gal(b1-3)[Neu5Ac(a2-3)Gal(b1-4)]GlcNAc
# In short: as §1
# [26] = target: Neu5Ac(a2-3)Gal(b1-3)[Neu5Ac(a2-6)]GalNAc
# In short: as §1
# [27] = target: Neu5Ac(a2-3)Gal(b1-3)[Neu5Ac(a2-6)]GlcNAc(b1-3)[Fuc(a1-3)[Gal(b1-4)]GlcNAc(b1-6)]Gal(b1-4)Glc
# In short: as §1
# Neu5Ac(a2-3)Gal(b1-4)Glc = target: Neu5Ac(a2-3)Gal(b1-4)Glc
# In short: as §1
# [28] = target: Neu5Ac(a2-3)Gal(b1-4)GlcNAc
# In short: as §1
# [29] = target: Neu5Ac(a2-3)Gal(b1-4)GlcNAc(b1-2)Man
# In short: as §1
# [30] = target: Neu5Ac(a2-3)Gal(b1-4)GlcNAc(b1-2)Man(a1-3)[GlcNAc(b1-2)Man(b1-4)GlcNAc(b1-2)Man(a1-6)]Man(b1-4)GlcNAc(b1-4)GlcNAc
# In short: as §1
# [31] = target: Neu5Ac(a2-3)Gal(b1-4)GlcNAc(b1-2)Man(a1-3)[Neu5Ac(a2-3)Gal(b1-4)GlcNAc(b1-2)Man(a1-6)]Man(b1-4)GlcNAc(b1-4)[Fuc(a1-6)]GlcNAc
# In short: as §1
# [32] = target: Neu5Ac(a2-3)Gal(b1-4)GlcNAc(b1-2)Man(a1-3)[Neu5Ac(a2-6)Gal(b1-4)GlcNAc(b1-2)Man(a1-6)]Man(b1-4)GlcNAc(b1-4)GlcNAc
# In short: as §1
# [33] = target: Neu5Ac(a2-3)Gal(b1-4)GlcNAc(b1-2)[Neu5Ac(a2-3)Gal(b1-4)GlcNAc(b1-6)]Man(a1-6)[Neu5Ac(a2-3)Gal(b1-4)GlcNAc(b1-2)Man(a1-3)]Man(b1-4)GlcNAc(b1-4)GlcNAc
# In short: as §1
# [34] = target: Neu5Ac(a2-3)Gal(b1-4)GlcNAc(b1-3)Gal
# In short: as §1
# [35] = target: Neu5Ac(a2-3)Gal(b1-4)GlcNAc(b1-3)Gal(b1-3)GlcNAc
# In short: as §1
# [36] = target: Neu5Ac(a2-3)Gal(b1-4)GlcNAc(b1-3)Gal(b1-4)GlcNAc
# In short: as §1
# [37] = target: Neu5Ac(a2-3)Gal(b1-4)GlcNAc(b1-3)Gal(b1-4)GlcNAc(b1-3)Gal(b1-4)GlcNAc
# In short: as §1
# [38] = target: Neu5Ac(a2-3)Gal(b1-4)GlcNAc(b1-3)Gal(b1-4)[Fuc(a1-3)]GlcNAc
# In short: as §1
# [39] = target: Neu5Ac(a2-3)Gal(b1-4)GlcNAc(b1-3)GalNAc
# In short: as §1
# [40] = target: Neu5Ac(a2-3)Gal(b1-4)GlcNAc(b1-3)[Neu5Ac(a2-3)Gal(b1-4)GlcNAc(b1-6)]GalNAc
# In short: as §1
# [41] = target: Neu5Ac(a2-3)Gal(b1-4)GlcNAc(b1-6)GalNAc
# In short: as §1
# [42] = target: Neu5Ac(a2-3)Gal(b1-4)GlcNAc(b1-6)[Gal(b1-3)]GalNAc
# In short: as §1
# [43] = target: Neu5Ac(a2-3)Gal(b1-4)GlcNAc(b1-6)[Neu5Ac(a2-3)Gal(b1-3)]GalNAc
# In short: as §1
# [44] = target: Neu5Ac(a2-3)Gal(b1-4)GlcNAc6S
# In short: as §1
# [45] = target: Neu5Ac(a2-3)Gal(b1-4)[Fuc(a1-3)]GlcNAc
# In short: as §1
# [46] = target: Neu5Ac(a2-3)Gal(b1-4)[Fuc(a1-3)]GlcNAc(b1-3)Gal
# In short: as §1
# [47] = target: Neu5Ac(a2-3)Gal(b1-4)[Fuc(a1-3)]GlcNAc(b1-3)Gal(b1-4)GlcNAc
# In short: as §1
# [48] = target: Neu5Ac(a2-3)Gal(b1-4)[Fuc(a1-3)]GlcNAc(b1-3)Gal(b1-4)[Fuc(a1-3)]GlcNAc(b1-3)Gal(b1-4)[Fuc(a1-3)]GlcNAc
# In short: as §1
# [49] = target: Neu5Ac(a2-3)Gal(b1-4)[Fuc(a1-3)]GlcNAc(b1-3)GalNAc
# In short: as §1
# [50] = target: Neu5Ac(a2-3)Gal(b1-4)[Fuc(a1-3)]GlcNAc(b1-6)[Gal(b1-3)]GalNAc
# In short: as §1
# [51] = target: Neu5Ac(a2-3)Gal(b1-4)[Fuc(a1-3)]GlcNAc6S
# In short: as §1
# [52] = target: Neu5Ac(a2-3)Gal6S(b1-4)GlcNAc
# In short: as §1
binder,measurement,setting,value
B1,glycan array binding signal (z-score),[1],-0.279
same,glycan array binding signal (z-score),[2],-0.306
same,glycan array binding signal (z-score),[3],-0.259
same,glycan array binding signal (z-score),[4],-0.268
same,glycan array binding signal (z-score),Man(a1-3)[Man(a1-6)]Man,-0.231
same,glycan array binding signal (z-score),[5],-0.265
same,glycan array binding signal (z-score),[6],-0.256
same,glycan array binding signal (z-score),[7],-0.285
same,glycan array binding signal (z-score),[8],-0.294
same,glycan array binding signal (z-score),[9],-0.251
same,glycan array binding signal (z-score),Man(a1-6)Man,-0.282
same,glycan array binding signal (z-score),Man(b1-4)GlcNAc,-0.291
same,glycan array binding signal (z-score),Neu5Ac(a2-3)Gal,-0.288
same,glycan array binding signal (z-score),[10],-0.265
same,glycan array binding signal (z-score),[11],-0.271
same,glycan array binding signal (z-score),[12],-0.286
same,glycan array binding signal (z-score),[13],-0.228
same,glycan array binding signal (z-score),[14],-0.252
same,glycan array binding signal (z-score),[15],-0.268
same,glycan array binding signal (z-score),[16],-0.277
same,glycan array binding signal (z-score),[17],-0.23
same,glycan array binding signal (z-score),[18],-0.264
same,glycan array binding signal (z-score),[19],-0.268
same,glycan array binding signal (z-score),[20],-0.21
same,glycan array binding signal (z-score),[21],-0.297
same,glycan array binding signal (z-score),[22],-0.29
same,glycan array binding signal (z-score),[23],-0.301
same,glycan array binding signal (z-score),[24],-0.269
same,glycan array binding signal (z-score),[25],-0.253
same,glycan array binding signal (z-score),[26],-0.261
same,glycan array binding signal (z-score),[27],-0.203
same,glycan array binding signal (z-score),Neu5Ac(a2-3)Gal(b1-4)Glc,-0.242
same,glycan array binding signal (z-score),[28],-0.218
same,glycan array binding signal (z-score),[29],-0.245
same,glycan array binding signal (z-score),[30],-0.225
same,glycan array binding signal (z-score),[31],-0.198
same,glycan array binding signal (z-score),[32],-0.244
same,glycan array binding signal (z-score),[33],-0.283
same,glycan array binding signal (z-score),[34],-0.237
same,glycan array binding signal (z-score),[35],-0.269
same,glycan array binding signal (z-score),[36],-0.269
same,glycan array binding signal (z-score),[37],-0.279
same,glycan array binding signal (z-score),[38],-0.285
same,glycan array binding signal (z-score),[39],-0.237
same,glycan array binding signal (z-score),[40],-0.281
same,glycan array binding signal (z-score),[41],-0.283
same,glycan array binding signal (z-score),[42],-0.281
same,glycan array binding signal (z-score),[43],-0.262
same,glycan array binding signal (z-score),[44],-0.265
same,glycan array binding signal (z-score),[45],-0.282
same,glycan array binding signal (z-score),[46],-0.246
same,glycan array binding signal (z-score),[47],-0.226
same,glycan array binding signal (z-score),[48],-0.271
same,glycan array binding signal (z-score),[49],-0.166
same,glycan array binding signal (z-score),[50],-0.255
same,glycan array binding signal (z-score),[51],-0.289
same,glycan array binding signal (z-score),[52],-0.288
